Assay results from PubChem BioAssay AID1745853 (National Center for Advancing Translational Sciences (NCATS), 2022).
Values joined by “and” are separate entries in the source; they are usually repeats but may differ in a detail not shown here. Equal entries are not always repeated. This is one part of the list. Shown are side measurements of this screen, not its main read-out; they come without a call.

Assays:
Test in all cases: Primary Screen for Target Class Profiling of Small Molecule Inhibitors of Methyltransferases
[1] = target: Glycine N-methyltransferase (Homo sapiens) (UniProt Q14749); conditions: purified enzyme, MTase-Glo SAH luminescence; measured here: GNMT inhibition; at 40 µM; stronger effect = lower value
Source text: (§1) PI: Matthew D. Hall Ph.D. and Quinlin M. Hanson Ph.D.
(§2) National Center for Advancing Translational Sciences (NCATS)
(§3) National Institute of Health (NIH), Rockville, MD
(§4) Target class profiling (TCP) is a chemical biology approach amenable to investigating understudied biological targets. TCP is achieved by developing a generalizable assay platform and applying it to screen a curated set of compound libraries against representative members of a target class. Small molecule methyltransferases (SMMTase) are a subclass of methyltransferase that act on metabolites to modulate signaling pathways, metabolize xenobiotics, or balance the available methyl pool. We screened four curated libraries totaling 27,574 unique compounds against the SMMTases nicotinamide N-methyltransferase (NNMT), phenylethanolamine N-methyltransferase (PNMT), histamine N-methyltransferase (HNMT), glycine N-methyltransferase (GNMT), catechol O-methyltransferase (COMT), and guanidinoacetate N-methyltransferase (GAMT). The data generated by this TCP can be leveraged for informed tool molecule development. For example, in the associated publication we identified a chemotype of HNMT-selective inhibitors. Additionally, we identified a putative SMMTase-selective inhibitor with potential as a tool molecule for studying broader methyltransferase biology.
(§5) High-through put screening assays were developed at the National Center for Advancing Translational Science (NCATS) for the enzymes NNMT, PNMT, HNMT, GNMT, COMT, and GAMT. Enzymatic activity was measured as a function of SAM cofactor conversion using the MTase Glo kit (Promega) for all enzymes. All assays were performed in 1536-well format with substrates and SAM concentrations at KM values. Enzyme concentration and assay timing were optimized for 10-20% SAM conversion. Initial screening of 27,574 compounds was done as single-point assays using the highest compound concentration (40 uM). […] These compounds were replated in 11-point dose response and assayed against NNMT, PNMT, HNMT, GNMT, COMT, GAMT, and a counter-assay. The IC50 and efficacy (maximal response) values were determined for each dose-response curve. These values are also accounted for in the area under the curve (AUC) values.
(§6) PROTOCOL TABLE (as described by Inglese J, Shamu CE and Guy RK. 2007)
(§7) SEQUENCE No. (e.g., 1, 2, 3, etc.); […] (e.g., Cells, Incubation, Reagent, etc.); VALUE; DESCRIPTION.
(§8) 1; Reagent; 2 uL; SMMTase Enzyme (2x) in reaction buffer, columns 1- 48.
(§9) 2; Reagent; 1 uL; SAM (4x) in reaction buffer, columns 1-48.
(§10) 3; Controls; 23 nL; DMSO in column 4; sinefungin in DMSO (0 uM - 40 uM) in 7-point 1:2 dilution series (n = 2) in column 2.
(§11) 4; Compounds; 23 nL; Columns 5-48.
(§12) 5; Reagent; 1 uL; Substrate (4x) in reaction buffer, columns 2-48.
(§13) 6; Time; 20-30 min; Incubation.
(§14) 7; Reagent; 1 uL; MTase-Glo reagent (5X), columns 1-48.
(§15) 8; Time; 30 min; Incubation.
(§16) 9; Reagent; 5 uL; MTase-Glo Detection reagent, columns 1-48.
(§17) 10; Time; 30 min; Incubation, luminescence evolution.
(§18) 11; Detection; Luminescence; ViewLux uHTS Microplate Imager (PerkinElmer).
(§19) NOTES (numbers refer to Sequence numbers above)
(§20) 1, 2, 5. White Medium Binding Greiner 1536-well plates (Cat #789175-F, Greiner Bio-One, Monroe, NC); Reaction buffer: 50 mM Tris, pH 8.0, 3 mM MgCl2, 1 mM EDTA, 50 mM NaCl, 1 mM DTT, and 0.1 mg/mL BSA. Evaporation was prevented by covering assay plates with metal lids containing holes to allow gas diffusion.
(§21) 1. Six SMMTase were profiled: HNMT, GNMT, PNMT, COMT, NNMT, GAMT
(§22) 5. The corresponding substrate was used for each enzyme: HNMT - 5.3 uM Histamine; GNMT - >500 uM Glycine; PNMT - 16.2 uM Norephinephrine; COMT - 13.7 uM Norephinephrine; NNMT - 3.8 uM Nicotinamide; GAMT - 2.5 uM Guanidinoacetate.6, 8, 10. Room temperature
(§23) 6. Final reaction conditions: 10 nM COMT, 5 uM SAM, 15 uM norepinephrine, 50 mM Tris, pH 8.0, 3 mM MgCl2, 1 mM EDTA, 50 mM NaCl, 1 mM DTT, and 0.1 mg/mL BSA; refer to tables 2 and S1 for specific timing.
8. […]

[2] = target: Guanidinoacetate N-methyltransferase (Homo sapiens) (UniProt Q14353); conditions: purified enzyme, MTase-Glo SAH luminescence; measured here: GAMT inhibition; at 40 µM; stronger effect = lower value
Source text: as §1, §2, §3, §4, §5, §6, §7, §8, §9, §10, §11, §12, §13, §14, §15, §16, §17, §18, §19, §20, §21, §22, §23
8. […]

[3] = target: Histamine N-methyltransferase (Homo sapiens) (UniProt P50135); conditions: purified enzyme, MTase-Glo SAH luminescence; measured here: HNMT inhibition; at 40 µM; stronger effect = lower value
Source text: as §1, §2, §3, §4, §5, §6, §7, §8, §9, §10, §11, §12, §13, §14, §15, §16, §17, §18, §19, §20, §21, §22, §23
8. […]

[4] = target: Nicotinamide N-methyltransferase (Homo sapiens) (UniProt P40261); conditions: purified enzyme, MTase-Glo SAH luminescence; measured here: NNMT inhibition; at 40 µM; stronger effect = lower value
Source text: as §1, §2, §3, §4, §5, §6, §7, §8, §9, §10, §11, §12, §13, §14, §15, §16, §17, §18, §19, §20, §21, §22, §23
8. […]

[5] = target: Phenylethanolamine N-methyltransferase (Homo sapiens) (UniProt P11086); conditions: purified enzyme, MTase-Glo SAH luminescence; measured here: PNMT inhibition; at 40 µM; stronger effect = lower value
Source text: as §1, §2, §3, §4, §5, §6, §7, §8, §9, §10, §11, §12, §13, §14, §15, §16, §17, §18, §19, §20, §21, §22, §23
8. […]
On the % scale 0 is the no-effect control and ±100 the full control effect.

Row | Compound | activity change, negative = inhibition [1] | activity change, negative = inhibition [2] | activity change, negative = inhibition [3] | activity change, negative = inhibition [4] | activity change, negative = inhibition [5]
1 | CCCn1c(=O)c2cc(Cl)ccc2n2c(SCC(=O)Nc3ccc(C)cc3C)nnc12 | -1.73% | 0% | 7.06% | 3.88% | 5.02%
2 | CC(Cc1ccco1)NC(=O)c1cc2n(n1)CCCN(Cc1ccccc1)C2=O (stereo unspecified) | -8.44% | 1.06% | 1% | -3.03% | 2.72%
3 | Cc1ccc(CCNC(=O)CN(C)S(=O)(=O)c2ccc3[nH]c4c(c3c2)CCCC4)cc1 | -1.3% | 4.21% | -2.9% | -4.09% | 0.437%
4 | NC(=O)c1ccc(O[C@@H]2COCC[C@H]2NC(=O)Cc2ccc(O)cc2)cc1 | -2.69% | -6.54% | -2.44% | -4.23% | -5.54%
5 | O=S(=O)(c1ccccc1)N1CCC(Cc2ccc(CN3CCOCC3)cc2)CC1 | -5.08% | 0% | 5.17% | -8.64% | 0.415%
6 | Cc1cc(C(=O)Cn2cc(C#N)ccc2=O)c(C)n1Cc1ccccc1 | 4.51% | 0.848% | 4.81% | -11.5% | -4.45%
7 | Cc1ccc(NC(=O)Cn2nc3n(C)c(=O)c4ccc(C(=O)NC(C)C)cc4n3c2=O)cc1 | 5.96% | 5.48% | 5.07% | 1.44% | 3.92%
8 | CC1(C(=O)NC2CCCCC2)Cc2ccccc2C(=O)N1CCN1CCOCC1 (stereo unspecified) | -1.06% | 4.2% | 4.94% | 10.8% | -2.49%
9 | CCCOCC(=O)N1CCCC(c2cc(N3CCCC3)nc(C)n2)C1 (stereo unspecified) | -4.14% | -2.36% | -2.04% | -4.87% | -1.3%
10 | Cc1ccccc1N1CCCN(Cc2ccccc2OCCO)CC1 | -5.76% | -9.87% | -37% | -6.36% | -12.9%
11 | NC(=O)C1(N2CCCCC2)CCN(c2nc3c(S(=O)(=O)c4ccccc4)nnn3c3ccccc23)CC1 | -9.32% | 4.91% | -48.2% | -10.3% | -3.37%
12 | O=C1Cc2cc(CCN3CCN(c4nsc5ccccc45)CC3)c(Cl)cc2N1 | -13.9% and -8.03% | 4.27% and -3.1% | -2.14% and 1.65% | -10.3% and -30.4% | -0.646% and -15.5%
13 | CC[C@@H](C)[C@H]1O[C@]2(CC[C@@H]1C)C[C@@H]1C[C@@H](C/C=C(\C)[C@@H](O[C@H]3C[C@H](OC)[C@@H](O[C@H]4C[C@H](OC)[C@@H](O)[C@H](C)O4)[C@H](C)O3)[C@@H](C)/C=C/C=C3\CO[C@@H]4[C@H](O)C(C)=C[C@@H](C(=O)O1)[C@]34O)O2 |  | 2.66% |  | -9.9% | 8.65%
14 | C[S+](=O)([O-])N1CCC(c2nnc3n2C(C(=O)NC2CCCCC2)CC3)CC1 (stereo unspecified) | -6.96% | -6.32% | -5.23% | -12.7% | -7.43%
15 | N=c1sc2c(n1CC(=O)c1ccc([N+](=O)[O-])cc1)CCCC2 |  | -10.4% |  | -15.9% | -4.52%
16 | Cc1cccc(OCC(=O)N2CCCC(c3[nH]ccc3C(N)=O)C2)c1 (stereo unspecified) | -3.04% | -0.905% | 1.73% | 0.504% | 2.22%
17 | Cc1ccc(NS(=O)(=O)c2cc3c(cc2C)n(C)c(=O)n3C)cc1Cl | 9.58% | 0% | 8.4% | -5.95% | 6.22%
18 | C/C=C/C=C/C=C/C(=O)O[C@@H]1C=C(CO)C(O)(C(=O)OC)[C@@]2(C)CCCC(C)(C)C12 (stereo partly specified) | -1.02% | 4.8% | 4.99% | -9.98% | -3.03%
19 | CCCN1C(=O)c2cc(C(=O)NCCc3cccs3)nn2CC1(C)C(=O)NC1CCCC1 (stereo unspecified) | 1.06% | 1.18% | -9.26% | 6.43% | 1.1%
20 | OC[C@H]1O[C@@H](OC[C@H]2O[C@@H](OC/C=C/c3ccccc3)[C@H](O)[C@@H](O)[C@@H]2O)[C@@H](O)[C@@H]1O | -3.33% | 0.668% | 3.4% | -13.1% | -0.317%
21 | CCOc1ccc(C(=O)NC2CCN(c3cc(-c4ccc(OC)cc4)[nH]n3)C2)cc1OCC (stereo unspecified) | -5.45% | -0.549% | -2.2% | -10.1% | -3.08%
22 | O=C(Nc1ccc(Cl)cc1)C1CCCN(C(=O)c2cccc(-c3ccco3)c2)C1 (stereo unspecified) | -6.77% | -23.7% | 6.73% | -39% | -13.6%
23 | CC(C)N1C[C@@H](CO)[C@H](c2nc(-c3cccnc3)no2)C1 | -1.48% | 2.5% | -12.9% | -0.143% | 3%
24 | Cc1nnc2n1C(C)CN(C(=O)CCn1cnc3ccccc3c1=O)C2 (stereo unspecified) | -0.954% | -0.807% | -0.332% | 0.442% | -2.05%
25 | CC1(C(=O)NC2CCCCC2)Cn2c(cc3occc32)C(=O)N1C1CCN(Cc2ccccc2)CC1 (stereo unspecified) | -0.748% | 0.493% | -1.28% | 3.7% | -0.33%
26 | CCN(CC)C(=O)CC1Sc2ncccc2N(CC(C)C)C1=O (stereo unspecified) | -0.921% | 2.15% | 2.71% | -7.44% | 15.4%
27 | O=C(Cc1ccccc1)Nc1ccc2n(c1=O)C[C@H]1C[C@@H]2CN(S(=O)(=O)c2ccc(Cl)cc2)C1 | -5.3% | -2.57% | -7.34% | -12.4% | -5.31%
28 | CCCN1C(=O)c2c(C(=O)NCc3ccc(OCC)cc3)ncn2CC1(C)C(=O)NCc1ccc(F)cc1 (stereo unspecified) | 3.4% | 2.56% | 2.78% | 8.84% | 6.92%
29 | CCn1c(-c2nonc2N)nc2cncc(CNC3CCNCC3)c21 | -5.35% | -7.41% | -5.75% | -18.6% | -8.28%
